In publication PMC6919601, “Identification of Plasmodium dipeptidyl aminopeptidase allosteric inhibitors by high throughput screening” (PLoS ONE, 2019):
Hit rate of the full screen: of about 110,000 compounds, about 230 (0.21%) showed an effect of 50% or more. The list shows a part of the results.

Target: DPAP1 (Plasmodium falciparum, UniProt Q8IIJ9)
Assay: primary screen, percent inhibition; read by cleavage of a fluorogenic dipeptide substrate; higher = more effect of the substance
Parameters: species or system P. falciparum D10 trophozoite lysates; single well
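Also: 30 min substrate incubation versus DMSO and 10 µM JCP410 controls.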

DPAP1, sequence (Q8IIJ9 whole entry, looked up): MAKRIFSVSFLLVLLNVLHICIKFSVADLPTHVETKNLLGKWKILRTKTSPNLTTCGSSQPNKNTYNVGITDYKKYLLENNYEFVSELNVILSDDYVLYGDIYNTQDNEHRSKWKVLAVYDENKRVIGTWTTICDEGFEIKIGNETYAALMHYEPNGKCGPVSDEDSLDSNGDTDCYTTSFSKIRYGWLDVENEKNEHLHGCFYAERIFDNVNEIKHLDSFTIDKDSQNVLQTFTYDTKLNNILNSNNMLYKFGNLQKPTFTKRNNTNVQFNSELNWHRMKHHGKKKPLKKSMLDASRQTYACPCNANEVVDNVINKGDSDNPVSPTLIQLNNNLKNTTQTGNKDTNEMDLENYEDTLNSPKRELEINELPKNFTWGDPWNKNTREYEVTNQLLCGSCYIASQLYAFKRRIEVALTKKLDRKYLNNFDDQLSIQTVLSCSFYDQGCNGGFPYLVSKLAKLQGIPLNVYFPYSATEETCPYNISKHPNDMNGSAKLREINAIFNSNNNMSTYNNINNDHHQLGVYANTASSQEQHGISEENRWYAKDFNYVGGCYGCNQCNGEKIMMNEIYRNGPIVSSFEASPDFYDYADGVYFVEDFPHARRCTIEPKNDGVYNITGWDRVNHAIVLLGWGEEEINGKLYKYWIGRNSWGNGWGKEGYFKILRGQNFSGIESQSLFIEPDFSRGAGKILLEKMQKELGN

SMILES | % Inhibition @ 10 uM
O=C(Nc1ccc(S(=O)(=O)NC2CCCC2)cc1)c1ccc(Cl)cc1Cl | 5.07%
CCCOC(=O)c1ccc(OCC(O)CN2CCN(C(=O)c3ccccc3)CC2)cc1 (stereo not drawn) | -4.74%
CCCCOc1cccc(C2c3c(oc4ccccc4c3=O)C(=O)N2CCCN2CCOCC2)c1 (stereo not drawn) | -1.11%
Fc1ccccc1OCCCCN1CCCC1 | 2.26%
COc1ccc(OCC(=O)Nc2sc(Cc3ccccc3)c(C)c2C(N)=O)cc1 | 0.795%
O[C@]12CCCC[C@@H]1[C@@H](c1cccc(Cl)c1)NCC2 | -2.08%
Cc1ccc2c(CC(=O)NCc3ccc4c(c3)OCO4)coc2c1C | 5.7%
Cc1nc2nc(SCC(=O)NCCN3CCCCCC3)nn2c(C)c1Cc1ccccc1 | -1.29%
Cc1cccc(C)c1NC(=O)C(NC(=O)CN1C(=O)c2ccccc2C1=O)c1ccc(Cl)cc1Cl (stereo not drawn) | -1.45%
CCCCOc1ccc(N2C(=O)CC(N3CCOCC3)C2=O)cc1 (stereo not drawn) | 2.67%
COc1ccccc1N/C(C)=C1/C(=O)NC(=O)N(C)C1=O | -6.03%
Cc1nnc2n1NC(c1ccc(Cl)cc1)C(C(=O)NCC(C)C)S2 (stereo not drawn) | -5.41%
CCCc1ccc(OCC(O)CNC(C)C)cc1 (stereo not drawn) | 5.61%
CC1=CSC2=NC(=O)/C(=C/c3cc(C)n(Cc4ccccc4)c3C)C(=N)N12 | -1.17%
CCC(C)NC(=O)c1cnn(-c2ccc(F)cc2)c1C1CCN(C(=O)OC(C)(C)C)CC1 (stereo not drawn) | 3.11%
CCOC(=O)c1ccc(-c2ccc(/C=C3/C(=N)N4C(=NC3=O)SN=C4S(C)(=O)=O)o2)cc1 | -5.27%
OC(C#CCN1CCCC1)c1ccccc1 (stereo not drawn) | -3.9%
O=C(c1cc2nc(-c3cccs3)cc(C(F)(F)F)n2n1)N1CCCCCC1 | 0.0538%
CC1CN(S(=O)(=O)c2ccc(Cl)c(C(=O)Nc3cccc(O)c3)c2)CC(C)O1 (stereo not drawn) | -6.38%
CCCCCCNS(=O)(=O)c1ccccc1 | 2.51%
CC/C(=N\CCCO)c1c(C(F)(F)F)nn(-c2nc3ccccc3s2)c1O | 0.317%
CC1CCN(C(=O)Cn2ncc3c2-c2ccccc2OC3)CC1 | 3.13%
O=c1oc2ccc3ccccc3c2cc1S(=O)(=O)c1ccc(F)cc1 | -3.1%
COc1cc(C=O)ccc1Oc1nc2ccccc2n2nnnc12 | 3.5%
CCOC(=O)CN(CC)C(C)c1ccccc1 (stereo not drawn) | 0.219%
Fc1ccc(N2N=C(c3cccs3)CC2c2cccs2)c(F)c1 (stereo not drawn) | -1.41%

SMILES | % Inhibition @ 10 uM
O=C(Nc1ccc2c(c1)OCCO2)c1ccc(CNS(=O)(=O)c2cccc(Cl)c2)cc1 | 2.01%
Cc1ccc(C2C(C#N)=C(N)Oc3[nH]nc(-c4ccc(F)cc4)c32)o1 (stereo not drawn) | -0.759%
c1nc(SCCCCSc2nc[nH]n2)n[nH]1 | -6.78%
Cc1cc(OCC(=O)N2CCCc3ccccc32)ccc1Br | 1.02%
C=CCNC(=O)c1ccccc1NC(=O)c1ccc(Br)cc1 | -5.81%
Cc1nc2cc(C(=O)NCCc3ccccc3)ccc2n1-c1ccc(F)cc1F | -3.93%
CC1CCN(C(=O)Nc2ccccc2C(F)(F)F)CC1 | -1.38%
COCCNC(=O)C1CCCN(c2nnc(C)c3c(C)n(-c4ccccc4)nc23)C1 (stereo not drawn) | 5.04%
CCOc1ccc2ccccc2c1/C=C1\Sc2ccccc2C1=O | -2.39%
COc1ccc(OC)c(CNc2ccc(Br)cc2)c1 | -7.06%
CCN(CC)CCNC(=O)Cn1ncc2c3cc(C)ccc3nc-2c1O | -1.97%
COc1ccccc1C(=O)N1c2ccccc2C(Nc2ccccc2)CC1C (stereo not drawn) | -8.6%
CCOc1ccc(NC(=O)c2ccccc2OC)cc1 | 5.66%
CCOC(=O)N1CCN(Cc2ccc(Br)cc2)CC1 | -3.57%
COc1ccc(CNc2ccc(F)cc2C)cc1 | -0.0505%
O=C(NCCO)/C(=C/c1ccc2c(c1)OCO2)NC(=O)c1ccc(Br)cc1 | 25.4%
O=C(CCCc1nc(-c2ccccc2)no1)NCc1ccco1 | -2.92%
CCOC(=O)c1c(S(=O)(=O)NCc2ccccc2OCC)c(C)n(C)c1C | -2.46%
C=CCOc1c(Cl)cc(CNc2ccc(OC)cc2)cc1OC | 0.812%
CC1CCCC(C)N1C(=O)/C=C/c1ccccc1 (stereo not drawn) | 4.66%
CCOc1ccc(-c2[nH]nc3c2C(c2ccc(O)cc2)C(C#N)=C(N)O3)c(OCC)c1 (stereo not drawn) | -0.759%
Cc1ccnc(Sc2nc3c(c(=O)[nH]c(=O)n3C)n2CCCc2ccccc2)n1 | 4%
CCOc1ccc(C(=O)Nc2cccc(C(C)=O)c2)cc1 | -11%
Fc1ccc(-c2noc3ncnc(NC4CCCc5ccccc54)c23)cc1 (stereo not drawn) | 3.76%
CC1(C)Cc2c(sc3nc4n(-c5ccccc5)cnn4c(=O)c23)CO1 | 0.823%
